Assay results as given in the RNAGym collection of RNA variant scans (doi:10.7554/elife.90254).
The source gives no read counts; variants with many changes may rest on few reads.

B1: LINE1-mini (parent)
chain: GGCAGAGCUCAACACAGCGUGGCAAAGUGGCUGUGGCUAGACUGCC

Variants of: B1
Experiment: self-cleavage, relative activity (ratio to wild type); higher = more cleavage; in vitro, sequencing; the parent is a self-cleaving ribozyme

| Variant | self-cleavage |
| --- | --- |
| A6U A12U U20C | 0.12 |
| A6U A14C U38A C42G | 0.05 |
| A6U A26U G29U G33U U34C C42G | 0.08 |
| A6U C8G A25U | 0.19 |
| A6U C10A G22U | 0.21 |
| A6U C8G U9G | 0.03 |
| A6U C8A G19U G27C A41C C45G | 0.11 |
| A6U C8A A24U G29U | 0.58 |
| A6U C8A C10G A14G C31U G40U | 0.01 |
| A6U C13G C31A G33A | 0.11 |
| A6U C10A C46U | 0.01 |
| A6U C10G A11C U20G | 0.03 |
| A6U A12U G21A | 0.27 |
| A6U C8G A12G G21U C42A | 0.23 |
| A6U C10A G17A G22A G30U G40U | 0 |
| A6U A16C G21C | 0.26 |
| A6U A14U A25G A41G | 0.23 |
| A6U C13A G17A G19A A24G U28G C31G | 0.1 |
| A6U A12G G19U G40A | 0.05 |
| A6U C8G C23A | 0.01 |
| A6U C8G A14C A16U A26C C42G | 0 |
| A6U C13G G29C G33C | 0.08 |
| A6U C10A C13A G35U | 0.06 |
| A6U C10U G21U | 0.26 |

| Variant | self-cleavage |
| --- | --- |
| A6U C10A C18U G21C G29U G30C | 0.02 |
| A6U C10A G19C | 0.02 |
| A6U C8G G40C C45U | 0.08 |
| A6U C10A G44U | 0.03 |
| A6U A14C G40C | 0.01 |
| A6U C10A G27C U32C | 0.03 |
| A6U C10G C37U | 0 |
| A6U C8A U9C C18G C46U | 0.25 |
| A6U C10A C15A | 0.01 |
| A6U A25G A26C G27U | 0.12 |
| A6U C10A A24C G27C | 0.02 |
| A6U C10A A25C | 0.06 |
| A6U A39C C45U | 0.32 |
| A6U C8G A16C G22C G29U C45A | 0.01 |
| A6U C8A U43C | 0.02 |
| A6U C10G C46U | 0 |
| A6U C8A A16U C18G G40A | 0.06 |
| A6U A16G G44U C45U C46A | 0.06 |
| A6U A16U C31U G36C C37G | 0.03 |
| A6U C13U C18G G36A | 0.08 |
| A6U C8G A14C C31U | 0.05 |
| A6U A14U C18A U38A C46G | 0.04 |
| A6U C10U G27U C46A | 0.3 |
| A6U A16U G27C | 0.03 |

| Variant | self-cleavage |
| --- | --- |
| A6U C8G C15A A16G | 0.05 |
| A6U A11U C15U G40C | 0.01 |
| A6U A16C C45A | 0.06 |
| A6U A24G G40A C42G | 0.09 |
| A6U C8U G36A A41G G44U | 1.64 |
| A6U C10U C13G | 0.02 |
| A6U C10A A12G G19A G22C | 0.01 |
| A6U A12G A24G | 0.01 |
| A6U C8U C13A G17U | 0.67 |
| A6U A16U G30A G35C U43C | 0.2 |
| A6U C13G C15A A41U C45G | 0.05 |
| A6U C8U G40C | 0.12 |
| A6U A12C U43C C45U | 0.02 |
| A6U A25U C45A | 0.88 |
| A6U C10A A14C | 0.02 |
| A6U C10A A14U | 0.06 |
| A6U C8G C45U | 0.14 |
| A6U C13G U28G G35C | 0.15 |
| A6U A25G G27U C37U U38G | 0.01 |
| A6U A12C U28A C31U G33U | 0.09 |
| A6U C8U C10U A39C | 0.05 |
| A6U A16G C31G A41G | 0 |
| A6U A26U G27U G30U U32G G36U U38A | 0.07 |
| A6U A16U G17A C31A C37G | 0 |

| Variant | self-cleavage |
| --- | --- |
| A6U C13A U32C | 0.19 |
| A6U C13G C31A | 0.17 |
| A6U C8U A12C G17C G19C | 0 |
| A6U A25G A39U | 0.5 |
| A6U C13G C37U C45G | 0.05 |
| A6U A16G G36U | 0.09 |
| A6U A14C A25U G35A | 0.25 |
| A6U A14U C15G C31A A39C | 0 |
| A6U C8A C18A C23A C45G | 0.45 |
| A6U A39G G40U | 0.09 |
| A6U C10U A16U G17A G19A U38C | 0.02 |
| A6U C10U A12C A25U G27U G33U U34C | 0.02 |
| A6U A12G C37U | 0.08 |
| A6U A26G G33U U34G C37A C45G | 0.11 |
| A6U C8U C23U G35A U38G G40C | 0.02 |
| A6U A12G A14C G44U | 0.08 |
| A6U C13A A16U G22U C23A C31A G40U | 0.12 |
| A6U A14C C37U A39U A41C | 0.01 |
| A6U C8G A11C C18U A26U G27A C31A U34C | 0 |
| A6U C10U G27C | 0.04 |
| A6U C8U G22A A25C | 0.08 |
| A6U A24C A26G C37A U38G C45A | 0 |
| A6U C8U C10A | 0.03 |
| A6U A41G C45G | 0.14 |

| Variant | self-cleavage |
| --- | --- |
| A6U C10A G29U | 0.01 |
| A6U C8U G19U G22A G29C | 0.07 |
| A6U C8A G19A C37U | 0.37 |
| A6U C8A G33U G40U | 0.18 |
| A6U C13U C15U A39C | 0.09 |
| A6U C8A G19C | 0.09 |
| A6U C8G C13U C15G | 0.11 |
| A6U A12C G35U U38A | 0.02 |
| A6U A12U A16U C18G C23A | 0.07 |
| A6U C13U A24U G35U | 0.15 |
| A6U A16U C31A A41U | 0.02 |
| A6U A12C U43C | 0.07 |
| A6U A16G G30U G40U | 0.01 |
| A6U C13U C15U C31A C37G C42A | 0.21 |
| A6U A16U G17A C18U G22C | 0.09 |
| A6U A16C U20A G21U G33A | 0.08 |
| A6U C10A G35C | 0.1 |
| A6U C8G G19A C23U | 0.11 |
| A6U A11U G22A A24G A25C | 0.21 |
| A6U C10A C18U | 0.06 |
| A6U A16U G17A A24C C37G C46G | 0.01 |
| A6U C10A G21U U34G | 0.06 |
| A6U A25U G29C | 0.07 |
| A6U C10A G17C G27C G35A | 0 |

| Variant | self-cleavage |
| --- | --- |
| A6U C8G G21U A39C | 0.05 |
| A6U A14G C18U G33A C46U | 0.01 |
| A6U A24C C37A | 0.04 |
| A6U C10A G22U C46G | 0.03 |
| A6U A25U A26C A39U C42G G44U | 0.02 |
| A6U C13A A24G A41C | 0.01 |
| A6U C10G C18A A25U G36U | 0.02 |
| A6U A14G C15A A24U C42U | 0.08 |
| A6U C8A G21U G35U C45G | 0.11 |
| A6U A14C C15U C37G A41C C45G C46U | 0.04 |
| A6U A25U C31U C45U | 0.84 |
| A6U A11U C37U A41G | 0.02 |
| A6U A16G C31G | 0.02 |
| A6U A25C C31U G40U | 0.67 |
| A6U A14C C15G C18G G22A | 0.02 |
| A6U A11U G21C C45U | 0.11 |
| A6U A14U A24C G27U G44A | 0.03 |
| A6U A41G U43A | 0.09 |
| A6U A26G G36U U38G | 0.01 |
| A6U A26C C31A C46A | 0.32 |
| A6U C10U A16G A26C C37U A39C | 0 |
| A6U A24U G30C G33A C45A | 0.05 |
| A6U C10A C15A G17C G21U C42U | 0.01 |
| A6U C8G A16U G29U | 0.05 |

| Variant | self-cleavage |
| --- | --- |
| A6U C8U C13U G30C G40A | 0.28 |
| A6U A25U G29U C31A | 0.1 |
| A6U C10G G35C G40A | 0.01 |
| A6U A12C A25G G29A | 0.02 |
| A6U A14G C15A | 0.01 |
| A6U C8A C23U | 0.28 |
| A6U C13G G35C | 0.54 |
| A6U C8A G22U U32C | 0.05 |
| A6U C13G U20C A25U U32G A39C | 0.12 |
| A6U C8U A12G C13A C31G | 0.49 |
| A6U C8G C13U C18A | 0.22 |
| A6U C8U A12U G17C G22A | 0.66 |
| A6U C10U G17A A39C | 0.06 |
| A6U C10G G17C C23U A25U G40U | 0.01 |
| A6U C10G G27U C31U A41C | 0.02 |
| A6U C10U C42A | 0.04 |
| A6U A24C G30C | 0.41 |
| A6U C8U A12U U28G U38C | 0.28 |
| A6U C8U C10G G33C G44U | 0.03 |
| A6U C8A G19U C31A | 0.02 |
| A6U A41C C45U | 0.03 |
| A6U C8A G29A G36U A39G | 0.05 |
| A6U A14C C37A | 0.98 |
